# Results taken from the supplement of paper PMC4166925.
# ± gives the standard deviation of the averaged measurements. Over roughly 33,000 sequences, “E-score (dimensionless, -0.5 to 0.5)” has its median near -0.046; the highest 2% begin near 0.36. Some of the results follow.
# Tested on: T1, SpTbr T-box DNA-binding domain (GST fusion)
# T1 sequence: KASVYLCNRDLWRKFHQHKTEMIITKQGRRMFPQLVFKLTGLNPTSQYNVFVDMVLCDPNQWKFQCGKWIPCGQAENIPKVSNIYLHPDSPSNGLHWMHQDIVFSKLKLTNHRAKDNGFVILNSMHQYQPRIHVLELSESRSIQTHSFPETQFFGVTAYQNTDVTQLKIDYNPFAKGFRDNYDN
# Test: PBM E-score of 8-mer (E-score (dimensionless, -0.5 to 0.5)); Tbr is Tbrain of the sea star Patiria miniata (Pm) or the sea urchin Strongylocentrotus purpuratus (Sp); higher = stronger binding preference; most listed sequences are background and not binding sites
# Settings: the construct has about 5 more residues each side
# Protocol: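 Universal protein-binding microarray (Agilent AMADID 016060, 60-bp probes with a 35-bp variable region) incubated with 200 nM GST-fused Strongylocentrotus purpuratus Tbr T-box DNA-binding domain (residues 362-554) in PBS pH 7.5. Scored for every ungapped 8-mer (given with its reverse complement) as E-score (range -0.5 to 0.5; >0.45 counts as bound) and Z-score of median probe intensity. Two replicate arrays (datasets 1 and 2).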
# 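Further: protein at 200 nM in PBS on universal double-stranded arrays.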
row,Sequence,PBM E-score of 8-mer
1,GAGGCGCC,0.21 ± 0.027
2,CGTTGTTA,0.142 ± 0.034
3,CGAGTACG,0.0963 ± 0.021
4,CAACTACG,-0.0286 ± 0.048
5,TAGGAAGA,-0.271 ± 0.03
6,AAATATCG,-0.0103 ± 0.087
7,CGCTGGGA,0.061 ± 0.053
8,ACCAAGGT,0.0533 ± 0.032
9,TCTGTAAA,0.00502 ± 0.046
10,ACCATCCT,-0.18 ± 0.029
11,GTCTCCTA,-0.236 ± 0.0029
12,CTGAGGCC,-0.225 ± 0.026
13,TGCTAGAA,0.0549 ± 0.044
14,ACAAAGAA,-0.0922 ± 0.08
15,GAATAAGC,-0.0679 ± 0.006
16,GATCGGAA,0.0351 ± 0.036
17,ATTAACTG,0.0795 ± 0.052
18,GATAATGC,0.0396 ± 0.012
19,CAAACCCC,-0.239 ± 0.018
20,CGTGACGC,0.192 ± 0.033
21,AATCAGCT,-0.261 ± 0.033
22,AACAGCGT,-0.0214 ± 0.058

row,Sequence,PBM E-score of 8-mer
1,CGAATAAA,0.117 ± 0.05
2,CGAGGCAA,-0.0874 ± 0.02
3,TCACTCGA,0.0732 ± 0.022
4,AGGCACAG,0.0232 ± 0.016
5,ATCGGTAA,-0.00135 ± 0.021
6,AGCCTTGA,-0.142 ± 0.019
7,AGTTGCTA,0.239 ± 0.042
8,CAGACACA,0.254 ± 0.026
9,CTAGGGTC,-0.232 ± 0.069
10,CACGGGCG,-0.00855 ± 0.048
11,ACAAAAAT,-0.153 ± 0.032
12,AACACCAT,0.377 ± 0.021
13,AGAAGTGA,0.289 ± 0.014
14,ATCTTAGC,0.0587 ± 0.0046
15,AACGCAAA,0.0563 ± 0.092
16,ATAACGCG,0.24 ± 0.012
17,GCATTAAA,-0.213 ± 0.011
18,CGGCGTAC,-0.177 ± 0.071
19,GATAGCGC,0.2908 ± 0.0026
20,AGATGGCC,-0.308 ± 0.011
21,ACTACTCG,-0.0412 ± 0.033
22,CCGAAGGC,-0.0425 ± 0.036

row,Sequence,PBM E-score of 8-mer
1,GGATGAAA,-0.2302 ± 0.0016
2,CATGGAAC,-0.212 ± 0.0075
3,CTTCTAGC,0.0222 ± 0.015
4,CCACTGCC,-0.0765 ± 0.0097
5,CTCAAGAA,-0.0625 ± 0.0062
6,AAGCCGCC,0.0307 ± 0.071
7,ACTAAGGG,-0.0651 ± 0.032
8,AGAGTACC,-0.133 ± 0.0056
9,AGCAGTTA,0.0617 ± 0.0055
10,CTTCTCTA,-0.233 ± 0.03
11,AATACCTC,0.0526 ± 0.03
12,CATAGTCC,-0.201 ± 0.065
13,AGAACCAT,-0.0566 ± 0.0026
14,GATCTGCA,0.0461 ± 0.029
15,TAATTTAA,-0.13 ± 0.05
16,ACGCAAGC,-0.101 ± 0.061
17,TCTTCTAA,-0.0518 ± 0.034
18,ATGATCAC,0.1861 ± 0.0015
19,AACATATT,0.0877 ± 0.062
20,GGTCATTA,-0.167 ± 0.028
21,CACCGTGA,0.251 ± 0.026
22,ACGCCGCT,-0.0528 ± 0.055

row,Sequence,PBM E-score of 8-mer
1,ACCCGCAG,-0.121 ± 0.017
2,AAACCTAC,-0.181 ± 0.039
3,ACGGAAGT,0.0353 ± 0.024
4,CGGATGTC,-0.0222 ± 0.052
5,CCGTCACC,0.345 ± 0.011
6,ACATCAGG,-0.239 ± 0.0075
7,AGAGGGCT,-0.165 ± 0.024
8,AACGTTCT,-0.0291 ± 0.0098
9,ATGCCATA,-0.0797 ± 0.018
10,ATTTAGGG,-0.217 ± 0.011
11,AGGATACT,-0.149 ± 0.052
12,ACGCATTA,0.162 ± 0.012
13,AGAATAGA,-0.133 ± 0.069
14,ACCAGCAT,-0.156 ± 0.068
15,ATTGTTTG,0.0143 ± 0.016
16,TCAGTTCA,-0.187 ± 0.037
17,AACCCTGT,-0.103 ± 0.012
18,ACTTGCAA,0.292 ± 0.01
19,AAGGTAAC,0.0373 ± 0.0052
20,TGGGCACA,-0.0899 ± 0.027
21,ATGGGCAA,-0.163 ± 0.025
22,GATTGCTA,0.0673 ± 0.018

row,Sequence,PBM E-score of 8-mer
1,AGCCCTTG,-0.143 ± 0.007
2,TAGATCGA,-0.213 ± 0.01
3,GGGAGAAC,0.0492 ± 0.0062
4,AAAAAAGC,-0.111 ± 0.066
5,CACTATCC,-0.0307 ± 0.042
6,CCGATGGC,0.00432 ± 0.043
7,GATCGGCA,0.0183 ± 0.072
8,TCGACAGA,0.207 ± 0.017
9,CGCGACCC,0.21 ± 0.048
10,TGCTAAAA,0.28 ± 0.041
11,CAATTCTG,0.0621 ± 0.042
12,GCTGAATA,-0.119 ± 0.038
13,AATGGTCA,0.00929 ± 0.068
14,ATAATTTA,0.0201 ± 0.038
15,ACGTCCAG,-0.0813 ± 0.0011
16,AGAAGACT,-0.285 ± 0.046
17,CATTTGCG,0.0339 ± 0.023
18,AGTGCGAA,0.47263 ± 0.00019
19,CTAGCCAA,-0.054 ± 0.036
20,AATACTCT,-0.0612 ± 0.0012
21,ATCCCTCA,-0.033 ± 0.011
22,TACGTTAA,0.00349 ± 0.068
